{"source": "ChEMBL document CHEMBL4888484", "about": "“Replenishing the malaria drug discovery pipeline: Screening and hit evaluation of the MMV Hit Generation Library 1 (HGL1) against asexual blood stage Plasmodium falciparum ,using a nano luciferase reporter read-out” (2022)", "note": "Hit rate of the full screen: of about 150,000 compounds, about 540 (0.36%) showed an effect of 50% or more. The list shows a part of the results.", "data": [{"tested_on": "Plasmodium falciparum", "experiment": "Primary screen in NF54 nanoGlo assay, in single point, at 2uM, 72h; a lower Z score goes with more inhibition", "assay_type": "functional, Erythrocyte", "conditions": "timepoint 72 hour", "units": {"% Inhibition": "%"}, "values": [{"smiles": "COc1ccc([C@H](NC(=O)Oc2ccccc2)c2nccc3cc(OC)c(OC)cc23)cc1OC", "% Inhibition": -11, "Z score": 1.06}, {"smiles": "CCc1nc(C)c(CN2CCC[C@H](C(=O)c3cc(Cl)ccc3OC)C2)[nH]1", "% Inhibition": -3, "Z score": 0.52}, {"smiles": "COc1cccc([C@H]2Oc3ccccc3CC23C(=O)NC(=O)NC3=O)c1", "% Inhibition": -9, "Z score": 1.17}, {"smiles": "O=S(=O)(F)CCN1CCn2c(Cc3ccccc3)nnc2C1", "% Inhibition": -3, "Z score": 0.47}, {"smiles": "CN1CCC2(CCCN2C(=O)c2ccc(S(=O)(=O)F)cc2)CC1", "% Inhibition": 0, "Z score": 0.02}, {"smiles": "CCc1ccc(CN2C[C@H]3c4ccccc4OC[C@@]3(C(=O)O)C2)nc1", "% Inhibition": -6, "Z score": 1.23}, {"smiles": "Cc1ccccc1CC(=O)N1CCN(CC(=O)N2Cc3ccccc3[C@H](c3ccccc3)C2)CC1", "% Inhibition": 0, "Z score": 0.04}, {"smiles": "CCCCn1nc(C)nc1CN1CCN(CC)CC1", "% Inhibition": -2, "Z score": 0.22}, {"smiles": "COC(c1ccccc1Cl)C(C)NCC1CCOC1", "note": "(stereo unspecified)", "% Inhibition": -15, "Z score": 1.83}, {"smiles": "O=C(Nc1ccc(Oc2cccc(F)c2)nc1)N1CCC2(CC1)OCCO2", "% Inhibition": -15, "Z score": 2.36}, {"smiles": "CCn1c(=O)oc2cc(-c3noc(-c4cc(C)cc(C)c4)n3)ccc21", "% Inhibition": 5, "Z score": -0.45}, {"smiles": "COC(=O)C1(c2ccccc2)CCN(C(=O)c2cc(C)nn2C)CC1", "% Inhibition": -7, "Z score": 1.02}, {"smiles": "CN(C)c1ccc(CN2CCN(CCO)[C@@H]3CS(=O)(=O)C[C@@H]32)cn1", "% Inhibition": -3, "Z score": 0.58}, {"smiles": "O=C(O)[C@H]1CN(CCC(=O)N2CCc3ccccc3C2)C[C@@H]1c1ccc(F)cc1", "% Inhibition": -7, "Z score": 1.31}, {"smiles": "c1cc2c(cc1CCN1CCCC1)CCO2", "% Inhibition": -12, "Z score": 1.27}, {"smiles": "Cc1cc(CN2CCCC3(C2)OCCO3)c(C)o1", "% Inhibition": -1, "Z score": 0.12}, {"smiles": "Cc1noc(C)c1CN1CC2CC1CO2", "note": "(stereo unspecified)", "% Inhibition": -10, "Z score": 1.33}, {"smiles": "CCC(=O)N1CCc2cc(N3C[C@@H](C(=O)N4CCC5(CC4)OCCO5)CC3=O)ccc21", "% Inhibition": -7, "Z score": 1.38}, {"smiles": "CC(C)(C)OC(=O)N1C2CCC1CN(Cc1ccccn1)CC2", "note": "(stereo unspecified)", "% Inhibition": -13, "Z score": 1.66}, {"smiles": "CNC(=O)c1cccnc1N1C[C@H]2COc3ccccc3C[C@@]2(C(=O)O)C1", "% Inhibition": -23, "Z score": 2.5}, {"smiles": "Cc1nn(C[C@H](C)N(C)Cc2cscn2)c(C)c1Cl", "% Inhibition": -4, "Z score": 0.69}, {"smiles": "Cn1c(=O)oc2c(C(=O)N[C@H]3CC(C)(C)c4ccccc43)cccc21", "% Inhibition": -4, "Z score": 0.68}, {"smiles": "CC(C)N(CCO)CCc1ccc(F)cc1Cl", "% Inhibition": 0, "Z score": -0.1}]}]}
